# The campaign covered roughly 300,000 compounds. About 22,000 (7.3%) were called active. Inconclusive means that the source gave no clear call. Such entries were picked first, then a sample of the others. Cut-off read from the data, not from the text of the source: active = activity score below about -60%; inconclusive = mostly about -28% to -61%; inactive = positive scores.
# Experiment: Activators via SNCA 5'UTR binding, MLPCN (AID 1814)
# Conditions: alpha-synuclein 5'UTR reporter, activators screen; active compounds read low; tested at 7.5 µM
row,SMILES,activity score
1,CC(=O)Nc1ccc(C(=O)Nc2ccc(S(=O)(=O)N3CCOCC3)cc2)cc1,inconclusive: -56.1%
2,O=C(Cc1ccc(Br)cc1)Nc1ccc(Cl)cc1,inconclusive: -50.4%
3,CN(C)CCNC(=O)c1csc(Nc2cccc3ccccc23)n1,inactive: 57.2%
4,O=C(Cc1ccccc1)Nc1cccc(-c2nnc(-c3ccco3)o2)c1,inconclusive: -40.4%
5,CCCCn1cnc2c([nH]c3cc(OC)ccc32)c1=O,active: -129%
6,CCCn1c(NC(=S)Nc2ccccc2)nc2ccccc21,inconclusive: -58.5%
7,CCOC(=O)c1c(N)sc(C(=O)OCCOC)c1C,inconclusive: -55.6%
8,C/C(=N\NC(=O)c1ccc(NS(=O)(=O)c2cccs2)cc1)c1ccccn1,inactive: 71.5%
9,O=C(O)c1ccc2c3c(ncnc13)-c1ccccc1C2=O,inactive: 107%
10,Cc1ccc(-c2csc(C(C#N)=C3CCCC3)n2)cc1,active: -236%
11,COc1ccc(/C=C2\SC(=S)N(CCCC(=O)NNC(=O)c3ccccc3O)C2=O)cc1,inactive: 74.8%
12,N#Cc1c(N2CCSCC2)nsc1-c1ccccc1Cl,active: -62.6%
13,CCOC(=O)CS(=O)(=O)c1nc(-c2ccc(F)cc2)cc(C(F)(F)F)n1,inconclusive: -32.8%
14,S=C1SCN(Cc2ccco2)CN1Cc1ccco1,inconclusive: -55.2%
15,COc1cc(/C=C/[N+](=O)[O-])ccc1OCc1cccc(C(=O)O)c1,inactive: 96.8%
16,Cc1nc2ccc(S(=O)(=O)Nc3cc(-c4nc5cccnc5s4)ccc3C)cc2s1,active: -84.7%
17,O=C(NC1CCCCC1)c1cc(-c2ccc(O)cc2)on1,active: -153%
18,COC(=O)Cn1nnc2c(cnn2-c2ccccc2)c1=O,inconclusive: -41.5%
19,CCOC(=O)/C(C#N)=C\c1cc(C)n(-c2ccccc2)c1C,inconclusive: -51.5%
20,Cc1ccc(-c2nc3ccccc3[nH]2)cc1NC(=O)c1sc2cc(Cl)ccc2c1Cl,inconclusive: -60%
21,COC(=O)CCC(=O)OC1(C)C(=O)C2=CN(CCc3c[nH]c4ccccc34)C(c3ccc(OC)cc3)=CC2=C(Br)C1=O (centres undefined),inconclusive: -54.5%
22,CCC(Sc1nc(C)cc(C)n1)C(=O)NC1=NN=C(c2ccc(C)cc2)CS1 (centres undefined),inconclusive: -33.1%
23,C/C(=N/NC(=O)c1ccc(Br)o1)C(C)C,inconclusive: -40.9%
24,Cc1ccc(CC(=O)NC2CCSC2=O)cc1 (centres undefined),inconclusive: -27.9%

row,SMILES,activity score
1,COc1ccc(C(=O)NCc2ccccn2)cc1[N+](=O)[O-],inconclusive: -30.4%
2,COc1ccccc1C(=O)NNC(=S)NC(=O)c1sc2ccccc2c1Cl,active: -138%
3,Cc1nn(-c2nnc(NCc3ccccc3)nn2)c(C)c1Br,active: -85.1%
4,CC1(C)Cc2c(sc3ncnc(NNC(=S)NCc4ccccc4)c23)CO1,inactive: 86.8%
5,COc1ccc2cc(S(=O)(=O)c3ccccc3)c(=O)oc2c1,active: -75%
6,COc1cc(/C=C/C(=O)OC2CC3CCC2(C)C3(C)C)ccc1O (centres undefined),inconclusive: -59.5%
7,CSc1n[nH]c(NCc2ccc(C)cc2)n1,inconclusive: -57.1%
8,COc1ccc(C)cc1S(=O)(=O)NCCC1=CCCCC1,inconclusive: -42.1%
9,COc1cccc(N2CCN(Cc3ccsc3)CC2)c1,inconclusive: -48%
10,CC(=O)c1sc(N/N=C\c2ccc(N(C)C)cc2)nc1C,active: -135%
11,CCOCC(=O)Nc1nc2ccccc2s1,inconclusive: -56.9%
12,Cc1ccc(C(=O)NNC(=O)CCCN2C(=O)/C(=C/c3ccccc3Cl)SC2=S)cc1,inactive: 68.5%
13,O=C(N/N=C/C=C/c1ccc([N+](=O)[O-])cc1)c1cccs1,active: -76.7%
14,O=C(O)CC(=O)Nc1ccc(Oc2ccc(C(F)(F)F)cn2)c(Cl)c1,inactive: 64.6%
15,CN1CCN(C(=O)c2cc3cc(F)ccc3[nH]2)CC1,inconclusive: -46.5%
16,CCCOc1ccc(CNC(=O)Cn2ncc3ccccc32)cc1,inconclusive: -58%
17,CC(C)Oc1ccc(CSc2ncn[nH]2)cc1,active: -83.8%
18,CC1(C)CC(=O)c2sc(NC(=O)C3COc4ccccc4O3)nc2C1 (centres undefined),active: -101%
19,C=CCn1c(SCc2cc(C(C)=O)ccc2OCC)nc2ccccc2c1=O,inactive: 104%
20,COc1cc(Br)cc2cc(C(=O)OC3CCN(C)CC3)c(=O)oc12,inconclusive: -59.6%
21,COc1ccc(OC)c(Nc2nc(-c3ccc(O)c(O)c3)cs2)c1,active: -158%
22,O=C(NCCc1ccc(F)cc1)C1CCCCC1,inconclusive: -46.5%
23,CN(C)CCNC(=O)c1cc2c(s1)-c1ccc(Cl)cc1SC2,inactive: 100%
24,CCOC(=O)NC(=S)Nc1ccc(C(C)(C)C)cc1Br,inconclusive: -36.1%

row,SMILES,activity score
1,Nc1cc(C(=O)c2ccccc2)ccc1N1CCOCC1,inconclusive: -58.5%
2,CCc1ccc(C(=O)Nc2ccc3c(c2)n(C)c(=O)n3C)cc1,inconclusive: -59.9%
3,Cn1c(C(=O)N/N=C/c2ccccc2)cc2ccccc21,active: -108%
4,Cc1cccc2c(CC(=O)Nc3ccccc3)noc12,inconclusive: -39.7%
5,CCCCOc1ccc2ccccc2c1C=O,inconclusive: -52.8%
6,Brc1cccc2sc(N3CCN(c4ccccc4)CC3)nc12,inconclusive: -51.9%
7,CCOc1ccc(-c2cc(CCCC(=O)Nc3cccc(OC)c3)no2)cc1,inactive: 67.5%
8,COc1ccc(-c2c(=O)n(OCc3ccccc3[N+](=O)[O-])c3ccccc3[n+]2[O-])c(OC)c1,inconclusive: -53.2%
9,Cc1ccc(NC(=S)Nc2cccc(S(=O)(=O)Nc3c(C)n(C)n(-c4ccccc4)c3=O)c2)cc1,inconclusive: -48.6%
10,COc1ccc(OC)c2sc(NNC(=O)COc3ccccc3)nc12,inconclusive: -60.2%
11,CCOc1cccc2sc(N(CCCN(C)C)C(=O)c3ccc(S(=O)(=O)N4CCc5ccccc5C4)cc3)nc12,inactive: 58.4%
12,O=C(c1cc2cc(F)ccc2[nH]1)N1CCc2ccccc2C1,inconclusive: -52.3%
13,C/C(=N\NC(=O)c1cc(C2CC2)nc2ccccc12)c1ccc(O)cc1O,inactive: 73.7%
14,Brc1csc(/C=N/Nc2nc3ccccc3s2)c1,active: -275%
15,O=c1c2cnn(-c3ccccc3)c2nc(-c2ccco2)n1-c1ccccc1,inconclusive: -59.4%
16,Cc1sc(NC(=O)c2ccco2)c(C(c2ccc(F)cc2)N2CCN(C)CC2)c1C (centres undefined),inconclusive: -31.5%
17,O=C1/C(=C/Nc2ccc3c(c2)OCO3)CCc2ccccc21,inactive: 96.3%
18,CN1CCN(C2Cc3ccc(F)cc3Sc3cc(F)c(Cl)cc32)CC1 (centres undefined),inactive: 102%
19,CCc1ccc(NC(=O)c2noc3c2CCCCC3)cc1,active: -182%
20,O=C(NCC1CCCN1S(=O)(=O)c1cccs1)C(=O)Nc1ccc(F)cc1 (centres undefined),inconclusive: -56.2%
21,O=C(N/N=C/c1ccccc1O)c1cccc(C(F)(F)F)c1,inactive: 82.4%
22,C/C(=N\NC(=O)c1c[nH]c2ccccc12)c1ccccn1,inactive: 71.7%
23,Cc1nc2ccc3nc(NC(=O)c4ccc5c(c4)OCCO5)sc3c2s1,inconclusive: -44.7%
24,O=C(Nc1ccc2oc(-c3ccccc3Cl)nc2c1)c1cncc(Br)c1,inconclusive: -39.5%

row,SMILES,activity score
1,Cc1ccc(NC(=O)C2CC2c2ccccc2)cc1 (centres undefined),active: -65.1%
2,O=C1/C(=C\c2ccc3ccccc3c2)CCCc2ccccc21,inconclusive: -48.5%
3,COC(=O)c1ccc(NC(=O)c2nc(S(=O)(=O)Cc3cccc(C)c3)ncc2Cl)cc1,inactive: 55.1%
4,O=C(CSc1n[nH]c(=O)n1C1CC1)c1ccc2c(c1)OCCO2,inconclusive: -60%
5,O=C(CCc1ccccc1)n1nc(-c2ccccc2)nc1NCc1ccco1,active: -67.1%
6,CCCN1CCN(C(=O)C2CCN(S(=O)(=O)c3ccc4c(c3)NC(=O)C(C)S4)CC2)CC1 (centres undefined),inconclusive: -50.7%
7,COc1cc(C(=S)N2CCOCC2)ccc1OS(=O)(=O)c1ccccc1[N+](=O)[O-],inconclusive: -61.2%
8,Cc1ccc(-c2nn(-c3ccccc3)cc2/C=N/NC(=O)c2ccncc2)o1,inconclusive: -48.8%
9,COC(=O)CCC(=O)COc1ccc(OC)cc1C#N,inconclusive: -44.1%
10,CC(=O)Nc1cc(-c2ccc(Cl)cc2)[nH]n1,active: -141%
11,COc1ccc(-c2ccc(C#N)c(OC(=O)c3c(Cl)cccc3Cl)n2)cc1,inconclusive: -47.1%
12,COC(=O)c1ccc(NC(=S)NCc2ccco2)cc1,inconclusive: -53.6%
13,O=C(Nc1nc2c(F)cc(F)cc2s1)C1COc2ccccc2O1 (centres undefined),inconclusive: -51.5%
14,CCN(CC)CCNc1cc(C)nc2c1C(=O)C(=O)C=C2N1CCCCC1,inactive: 81.4%
15,OCCN1CCN(c2cc(-c3ccccc3)c3ccccc3n2)CC1,inconclusive: -55.9%
16,Cc1ccc(CNC(=O)Nc2ccc(C)cc2)cc1,active: -75.2%
17,COc1ccccc1C1CC(=O)Nc2cc(C)c(C)cc21 (centres undefined),inactive: 62.8%
18,Cc1ccc(NCC(=O)N=Nc2c(O)n(C)c3ccccc23)cc1,inconclusive: -54.4%
19,Cn1ccc2cc(NC(=O)Nc3cccnc3)ccc21,inconclusive: -42.8%
20,COC(=O)c1c(NC(=O)c2ccc(OC(C)C)cc2)sc2c1CC(C)(C)NC2(C)C,inactive: 103%
21,CCN(CC)C(=O)CSc1ncnc2sc(-c3ccccc3)cc12,active: -168%
22,CC(=O)[C@]1(O)Cc2c(O)c3c(c(O)c2[C@@H](O[C@H]2C[C@H](N)[C@H](O)[C@H](C)O2)C1)C(=O)c1ccccc1C3=O,inactive: 110%

# From PubChem BioAssay AID1814 (Broad Institute, 2009)
